The record followed here is paper PMC6891891.

No constants are given. Whether binding was seen depends on the method and setting. Some results given as binding are weak or reduced against the parent protein; the word gives no strength. Sequences can lack the tags named with a protein.

In assay [1] the target is T1, SUMO ligase Siz2, Y2H fusion (S. cerevisiae) (UniProt Q12216).
T1 sequence: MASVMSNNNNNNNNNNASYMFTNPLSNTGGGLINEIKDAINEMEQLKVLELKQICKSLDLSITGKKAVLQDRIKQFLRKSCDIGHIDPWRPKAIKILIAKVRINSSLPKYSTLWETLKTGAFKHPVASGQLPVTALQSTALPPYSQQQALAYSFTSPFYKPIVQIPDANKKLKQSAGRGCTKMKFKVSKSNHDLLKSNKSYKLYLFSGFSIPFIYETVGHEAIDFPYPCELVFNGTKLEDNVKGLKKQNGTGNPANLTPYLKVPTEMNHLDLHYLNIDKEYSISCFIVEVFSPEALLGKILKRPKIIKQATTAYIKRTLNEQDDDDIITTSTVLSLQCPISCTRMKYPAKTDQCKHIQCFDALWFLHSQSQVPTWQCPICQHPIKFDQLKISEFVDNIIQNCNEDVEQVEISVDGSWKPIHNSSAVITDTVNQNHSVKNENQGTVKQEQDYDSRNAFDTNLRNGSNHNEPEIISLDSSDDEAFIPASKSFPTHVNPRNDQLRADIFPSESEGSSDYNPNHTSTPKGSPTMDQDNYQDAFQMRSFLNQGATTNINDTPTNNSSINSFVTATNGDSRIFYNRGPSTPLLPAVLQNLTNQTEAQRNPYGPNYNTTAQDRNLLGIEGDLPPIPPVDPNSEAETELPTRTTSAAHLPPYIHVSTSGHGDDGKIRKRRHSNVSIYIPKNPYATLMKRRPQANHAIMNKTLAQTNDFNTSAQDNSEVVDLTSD
Briefly: two-hybrid; directed Y2H: pGAD-C1 (AD) and pGBD-C1 (BD) fusions cotransformed into the Y2HGold strain; HIS3 reporter, 8 mM 3-AT added in Figure 4D.

In assay [2] the target is T1, SUMO ligase Siz2, Y2H fusion (S. cerevisiae). The assay is described as follows: condition: only in a Y2H reporter strain lacking both Siz1 and Siz2; two-hybrid; directed Y2H in a reporter strain in which both SUMO ligases Siz1 and Siz2 were deleted (Figure 4E).
Assay [3] concerns the target T2, Slx5 subunit of the Slx5/8 STUbL, Y2H fusion (S. cerevisiae) (UniProt P32828).
T2 sequence: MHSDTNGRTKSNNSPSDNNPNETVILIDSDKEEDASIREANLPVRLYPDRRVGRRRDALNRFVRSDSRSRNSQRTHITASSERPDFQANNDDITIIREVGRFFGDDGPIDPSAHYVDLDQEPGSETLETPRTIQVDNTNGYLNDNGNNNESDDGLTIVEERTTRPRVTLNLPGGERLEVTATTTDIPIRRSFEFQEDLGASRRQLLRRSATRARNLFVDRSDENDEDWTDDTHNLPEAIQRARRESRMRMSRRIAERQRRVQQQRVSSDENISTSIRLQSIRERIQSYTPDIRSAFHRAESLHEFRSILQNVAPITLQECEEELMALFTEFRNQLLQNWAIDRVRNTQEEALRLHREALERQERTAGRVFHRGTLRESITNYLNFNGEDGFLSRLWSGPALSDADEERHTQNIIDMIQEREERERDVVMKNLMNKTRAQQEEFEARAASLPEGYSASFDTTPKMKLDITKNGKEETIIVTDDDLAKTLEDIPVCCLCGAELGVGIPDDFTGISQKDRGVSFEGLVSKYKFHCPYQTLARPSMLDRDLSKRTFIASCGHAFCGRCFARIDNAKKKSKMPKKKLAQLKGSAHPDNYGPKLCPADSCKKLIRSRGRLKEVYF
Described as above.

Assay [4] has as its target T3, catalytically dead Ulp2 (Ulp2-C624S), AD-fusion and BD-fusion for Y2H (S. cerevisiae) (UniProt P40537).
T3 sequence: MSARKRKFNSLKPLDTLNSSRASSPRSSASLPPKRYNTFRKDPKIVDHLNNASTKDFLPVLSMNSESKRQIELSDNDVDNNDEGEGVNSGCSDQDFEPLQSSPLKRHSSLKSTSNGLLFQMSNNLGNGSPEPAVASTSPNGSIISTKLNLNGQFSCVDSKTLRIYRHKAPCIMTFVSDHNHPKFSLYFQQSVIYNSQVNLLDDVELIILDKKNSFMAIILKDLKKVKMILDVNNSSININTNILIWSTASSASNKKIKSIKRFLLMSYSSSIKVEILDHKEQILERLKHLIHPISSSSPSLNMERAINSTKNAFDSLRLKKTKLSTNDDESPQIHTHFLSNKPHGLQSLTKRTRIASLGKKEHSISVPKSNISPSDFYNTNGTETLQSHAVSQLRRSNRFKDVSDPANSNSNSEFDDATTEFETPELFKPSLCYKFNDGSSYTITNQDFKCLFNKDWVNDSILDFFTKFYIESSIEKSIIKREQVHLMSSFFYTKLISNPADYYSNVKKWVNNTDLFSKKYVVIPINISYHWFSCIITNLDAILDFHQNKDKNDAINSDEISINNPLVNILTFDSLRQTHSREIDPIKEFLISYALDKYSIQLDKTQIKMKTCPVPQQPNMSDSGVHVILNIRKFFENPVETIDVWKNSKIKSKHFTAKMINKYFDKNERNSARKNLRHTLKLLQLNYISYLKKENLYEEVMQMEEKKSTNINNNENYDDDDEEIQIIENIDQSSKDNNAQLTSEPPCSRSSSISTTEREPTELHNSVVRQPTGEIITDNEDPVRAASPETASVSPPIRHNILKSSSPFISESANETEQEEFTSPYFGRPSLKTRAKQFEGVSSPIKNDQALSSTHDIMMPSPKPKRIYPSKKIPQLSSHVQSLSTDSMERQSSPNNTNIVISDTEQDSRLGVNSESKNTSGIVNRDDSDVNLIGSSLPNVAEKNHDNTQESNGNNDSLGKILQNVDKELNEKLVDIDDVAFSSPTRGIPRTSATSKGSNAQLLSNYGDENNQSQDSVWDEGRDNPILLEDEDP
The assay is described as above.

B1: Dbf4, AD-fusion and BD-fusion for Y2H (protein, UniProt P32325 1-704)
chain: MVSPTKMIIRSPLKETDTNLKHNNGIAASTTAAGHLNVFSNDNNCNNNNTTESFPKKRSLERLELQQQQHLHEKKRARIERARSIEGAVQVSKGTGLKNVEPRVTPKELLEWQTNWKKIMKRDSRIYFDITDDVEMNTYNKSKMDKRRDLLKRGFLTLGAQITQFFDTTVTIVITRRSVENIYLLKDTDILSRAKKNYMKVWSYEKAARFLKNLDVDLDHLSKTKSASLAAPTLSNLLHNEKLYGPTDRDPRTKRDDIHYFKYPHVYLYDLWQTWAPIITLEWKPQELTNLDELPYPILKIGSFGRCPFIGDRNYDESSYKRVVKRYSRDKANKKYALQLRALFQYHADTLLNTSSVNDQTKNLIFIPHTCNDSTKSFKKWMQEKAKNFEKTELKKTDDSAVQDVRNEHADQTDEKNSILLNETETKEPPLKEEKENKQSIAEESNKYPQRKELAATPKLNHPVLATFARQETEEVPDDLCTLKTKSRQAFEIKASGAHQSNDVATSFGNGLGPTRASVMSKNMKSLSRLMVDRKLGVKQTNGNNKNYTATIATTAETSKENRHRLDFNALKKDEAPSKETGKDSAVHLETNRKPQNFPKVATKSVSADSKVHNDIKITTTESPTASKKSTSTNVTLHFNAQTAQTAQPVKKETVKNSGYCENCRVKYESLEQHIVSEKHLSFAENDLNFEAIDSLIENLRFQI
For the molecule B1, the binding entry is “binds” in assay [1], “no binding” in assay [2], “no binding” in assay [3] and “no binding” in assay [4].
